Test results reported in PMC4336329 (PLoS ONE, 2015).
Among all 310,000 compounds or so, about 2,200 (0.71%) showed an effect of 50% or more. The effect is printed as a negative number. The list shows a part of the results.

Each compound was assayed against human ether-à-go-go-related gene (hERG) potassium channel (human, UniProt Q12809) (assay: primary screen, population patch clamp on CHO cells stably expressing hERG).
Sequence of human ether-à-go-go-related gene (hERG) potassium channel (Q12809 whole entry, looked up): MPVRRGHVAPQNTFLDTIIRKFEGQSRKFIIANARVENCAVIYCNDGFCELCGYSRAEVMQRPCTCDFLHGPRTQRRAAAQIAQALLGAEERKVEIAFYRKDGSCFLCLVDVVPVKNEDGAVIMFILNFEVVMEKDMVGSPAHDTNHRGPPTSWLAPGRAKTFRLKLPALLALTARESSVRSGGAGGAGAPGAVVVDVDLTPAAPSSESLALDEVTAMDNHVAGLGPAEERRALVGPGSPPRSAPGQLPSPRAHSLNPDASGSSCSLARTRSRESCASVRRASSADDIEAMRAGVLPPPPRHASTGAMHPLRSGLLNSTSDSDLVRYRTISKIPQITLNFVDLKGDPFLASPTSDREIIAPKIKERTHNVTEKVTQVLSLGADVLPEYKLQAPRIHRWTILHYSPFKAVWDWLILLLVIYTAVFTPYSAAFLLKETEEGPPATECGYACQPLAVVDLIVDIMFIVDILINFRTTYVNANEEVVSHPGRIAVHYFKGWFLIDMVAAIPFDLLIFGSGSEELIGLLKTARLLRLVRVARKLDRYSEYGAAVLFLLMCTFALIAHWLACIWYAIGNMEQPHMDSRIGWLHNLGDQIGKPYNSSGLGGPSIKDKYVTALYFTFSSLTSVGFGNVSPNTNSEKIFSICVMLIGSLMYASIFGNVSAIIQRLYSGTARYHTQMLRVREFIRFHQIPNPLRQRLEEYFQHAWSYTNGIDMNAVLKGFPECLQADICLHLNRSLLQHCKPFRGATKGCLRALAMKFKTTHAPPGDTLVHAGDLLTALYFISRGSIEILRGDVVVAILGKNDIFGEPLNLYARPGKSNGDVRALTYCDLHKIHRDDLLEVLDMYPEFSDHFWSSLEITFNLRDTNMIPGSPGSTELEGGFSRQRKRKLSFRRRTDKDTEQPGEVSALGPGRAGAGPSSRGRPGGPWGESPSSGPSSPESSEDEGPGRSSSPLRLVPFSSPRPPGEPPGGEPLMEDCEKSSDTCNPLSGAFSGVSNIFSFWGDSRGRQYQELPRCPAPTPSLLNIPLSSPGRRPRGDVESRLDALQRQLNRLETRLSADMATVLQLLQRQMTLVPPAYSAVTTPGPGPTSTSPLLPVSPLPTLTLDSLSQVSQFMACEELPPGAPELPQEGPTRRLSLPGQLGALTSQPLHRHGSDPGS

SMILES | hERG current change (%, negative = inhibition) at 1uM [%]
CCOC(=O)NC(=O)COC(=O)c1ccc(O)cc1 | 8.16
CN(c1ccc(C(=O)N2CCCCC2)cc1)S(C)(=O)=O | 19.2
CCOc1ccc(/C=C2\SC(N3CCCCC3)=NC2=O)cc1 | -10
Cc1c(C(c2ccc(C(=O)O)cc2)c2c(C)n(C)n(-c3ccccc3)c2=O)c(=O)n(-c2ccccc2)n1C.Cl | 10.3
COc1ccc2c(c1OC)C(=O)N(c1ccc(F)cc1)C2 | 7.42
CCC1(C)CC(C(CC(=O)O)c2ccc(C)cc2)CCO1 (stereo not shown) | 13.1
O=C(Nc1ccccc1N1CCOCC1)C1=COCCO1 | 13.2
O=S(=O)(/N=C/c1c(O)ccc2ccccc12)c1cccs1 | 5.33
CC(=O)NC1CC2CCCC(C1)N2S(=O)(=O)c1cccc(F)c1 (stereo not shown) | 8.53
Cc1cc(C)c2c(N=NN3CCOCC3)[nH]nc2n1 | 4.17
O=C(NCCCN1CCOCC1)c1onc(CSc2nc3ccccc3[nH]2)c1C(=O)NCCCN1CCOCC1 | 12
O=C(CCC(=O)N1CCN(c2ccc(O)cc2)CC1)c1cccs1 | 5.69
Cc1cccc(C)c1NC(=O)CN(C)C(=O)c1ccccc1OCc1ccc(F)cc1 | 10.6
CCN(CC)S(=O)(=O)c1ccc(N2C(=O)Nc3ccccc3N2O)cc1 | 12.1
CCCc1c(C(=O)N2CCN(c3ccccc3OC)CC2)cnn1-c1ccccc1 | 10.4
C=CCOC(=O)c1ccc(-n2cnc(C)n2)nc1 | 7.25
O=C(CN1CCOCC1)Nc1cccc(Cl)c1Cl | -10.5
COC(=O)c1c(N)n(Cc2ccc(OC)cc2)c2nc3ccccc3nc12 | 1.56
O=C(Nc1cccnc1)C1CCN(S(=O)(=O)c2cccs2)CC1 | 24.5
COc1ccc(N(CC(=O)N2CCN(Cc3ccccc3)CC2)S(C)(=O)=O)cc1 | 11.2
Cc1ccc(OCC(=O)NNC(=O)C(=O)N2CCCC2)c(C)c1 | 4.9
CCCCN1C(=O)C2C(c3ccc(OC)cc3O)NC(CC(C)C)(C(=O)O)C2C1=O (stereo not shown) | 3.19

SMILES | hERG current change (%, negative = inhibition) at 1uM [%]
CC1CC(C)(C)CC2(C1)NC(=S)N(c1ccccc1)N2 (stereo not shown) | 11.9
COc1ccc(/C=N/c2c(-c3ccc(OC)cc3)nc3n2CCS3)cc1 | 12.7
Cc1c(C(=O)c2ccc(F)cc2)c2ccccn2c1CCc1ccccn1 | -0.427
CC(=O)c1ccc(N2CCN(c3ncc(C(F)(F)F)cc3Cl)CC2)cc1 | 14.6
CCOC(=O)c1cccnc1SC(CC)C(=O)N1CCOCC1 (stereo not shown) | -11.3
O=C(NN1CC(C(=O)OCc2ccc(Br)cc2)CC1=O)c1ccccc1 (stereo not shown) | 11.6
Nc1nccc(-c2ccc(-n3cccc3)cc2)n1 | 11.6
CC1(c2nnc(Cc3ccccc3)o2)CC(c2cccc([N+](=O)[O-])c2)=NO1 (stereo not shown) | 7.89
O=C1CCc2cc(S(=O)(=O)N3CCC(C(=O)NCc4ccccc4Cl)CC3)ccc2N1 | 14.7
COC(=O)CN1C(=O)C(C)(C)Oc2ccc(C(=O)Nc3cccc(OC)c3)cc21 | 17.5
COc1ccc(-c2noc3c2-c2nc(-c4cccc(C)c4)sc2CC3)cc1 | 7.86
Cc1cccc(NC(=O)CN2CCN(C(=O)CNC(=O)Cc3cccc4ccccc34)CC2)c1C | -14.2
O=S(=O)(c1cccs1)N1CCN(CCOc2ccc(Cl)cc2)CC1 | 5.87
Oc1ccc(-c2nc3c4c(ncn3n2)-c2ccccc2CC42CCCC2)cc1 | 12.3
CCC(C)C(NC(N)=O)C(=O)Nc1ccc(C(=O)OC)cc1 (stereo not shown) | 17.1
CC1(C)CC[C@]2(CO)[C@@H](O)C[C@]3(C)C(=CCC4[C@@]5(C)CC[C@H](O)C(C)(C)C5CC[C@]43C)[C@@H]2C1 (stereo partly shown) | 14.4
CN(C)CCCN(C(=O)c1ccc(S(=O)(=O)N2CCCCC2)cc1)c1nc2cc3c(cc2s1)OCO3.Cl | -17.7
CCCCOC(=O)c1ccc(NC(=O)c2cnccn2)cc1 | 18
Cl.O=C(NCCOC(=O)C1COc2ccccc2O1)c1cccnc1 (stereo not shown) | 6.02
CCOC(=O)c1cc(C)n(Cc2cccc(OC)c2OC)c1C | 3.44
CCOC(=O)CSc1nnc(-c2ccoc2C)n1-c1ccc(C)cc1 | 7.78
CCOCC(=O)Nc1sc2c(c1C(=O)OCC)CCCC2 | -7.69

SMILES | hERG current change (%, negative = inhibition) at 1uM [%]
CCS(=O)(=O)N1N=C(c2cccc(NS(C)(=O)=O)c2)CC1c1ccc(C)cc1 (stereo not shown) | -18.5
COc1ccc(-c2nnnn2-c2ccc(F)cc2F)cc1 | 12
C=CCNC(=S)N1CCN(c2ncc3c(=O)c(C(=O)O)cn(CC)c3n2)CC1 | 1.54
Cc1ccc(-n2c(C)nn(-c3ncc(C(F)(F)F)cc3Cl)c2=O)cc1 | 9.4
Cl.c1ccc(NCc2cccc3ccccc23)nc1 | 12.3
Clc1ccc(-c2csc(-c3cccnc3)n2)s1 | 13.6
C=C(C)[C@@H](O)COc1c2ccoc2cc2oc(=O)ccc12 | 17.3
COC(=O)c1sc(NC(=O)c2ccco2)c(C#N)c1C | 2.76
Cc1ccc(C)c2[nH]c(=O)c(CN(Cc3ccco3)C(=O)Nc3ccccc3)cc12 | 9.87
Cc1ccc([C@@H]2[C@@H]3C(=O)N(C)C(=O)[C@@H]3[C@]3(C)C(=O)N(CC4CC4)CC(=O)N23)o1 | 8.81
O=C(c1ccco1)N1CCN(S(=O)(=O)c2ccccc2[N+](=O)[O-])CC1 | 12.5
O=c1c2ccccc2nnn1Cc1ccccn1 | 17
Cc1ccc2[nH]c(=O)c(CN(CCCO)S(=O)(=O)c3c(C)ccc4nsnc34)cc2c1 | 2.9
Clc1ccc(Cc2noc(CN3CCN(c4ccccc4)CC3)n2)c(Cl)c1 | 3.7
O=C(CSCc1c(Cl)cccc1Cl)NCc1ccccn1 | 13.3
CCN(Cc1ccccc1)C(=O)c1cccc(S(=O)(=O)N2CCN(c3ccc(F)cc3)CC2)c1 | 2.69
OCC1OC(n2nnc3ccccc32)C(O)C(O)C1O (stereo not shown) | 16.2
CC(=O)c1cccc(NC(=O)CN(C2CCCCC2)S(C)(=O)=O)c1 | 11.8
O=C(/C=C/c1ccc[nH]1)c1ccccc1 | 15.3
CSc1nnc2c3ccccc3n(CCc3ccccc3)c2n1 | -11.2
CCc1ccc(NC(=S)N(Cc2cccc(Br)c2)CC2CCC(C(=O)O)CC2)cc1 (stereo not shown) | 18.8
COc1cccc(CN2CC(C(=O)NCCc3ccc(C)s3)CCC2=O)c1 (stereo not shown) | 3.04

SMILES | hERG current change (%, negative = inhibition) at 1uM [%]
O=C(NC1=NCCS1)C1COc2ccccc2O1 (stereo not shown) | 5.11
Cn1nc(C(=O)NC2CCCN(Cc3ccccc3F)C2)c2ccccc2c1=O (stereo not shown) | -13.2
CCc1cccc(NC(=O)CN2C(=O)NC3(CCCCCCC3)C2=O)c1 | -1.18
CC(=O)O[C@H]1[C@H](C)OC=C[C@@H]1OC(C)=O | 12.7
CC(OC(=O)c1ccccc1C(=O)N(C)C1CCCCC1)C(=O)NC1(C#N)CCCCC1 (stereo not shown) | -2.84
COc1ccc(CC(C)NCCC(c2ccccc2)c2ccccc2)cc1 (stereo not shown) | -16.7
O=C1C2C3C=CC(C2C(=O)N1C1CCCCC1)C1C(=O)N(C2CCCCC2)C(=O)C31 (stereo not shown) | 11
CNS(=O)(=O)c1ccc(N=Cc2c(O)n(-c3cccc(C)c3)c(=O)[nH]c2=O)cc1 | 11.5
CCOC(=O)c1ccc(NC(=O)N2CCN(c3ccccn3)CC2)cc1 | -9.14
O=C(CN1CCOCC1)Nc1ccc([N+](=O)[O-])cc1 | 9.44
NC(=O)CSc1nccn1Cc1ccccc1 | 5.35
COC(=O)c1cc(NC2c3ncccc3C(=O)N2Cc2ccccc2)cc(C(=O)OC)c1 (stereo not shown) | -1.73
NC(=O)COC(=O)CN1C(=O)C2CCCCC2C1=O (stereo not shown) | 13.8
COc1ccc(CN2CC3CC(C2)c2cccc(=O)n2C3)cc1OC (stereo not shown) | 3.62
COc1ccc(S(=O)(=O)N(C)CC(=O)N2CCN(Cc3ccccc3)CC2)cc1C | -13.9
COc1cccc(NC(=O)c2ccnc(N3CCC(C(=O)NCc4cc(OC)ccc4OC)CC3)c2)c1 | 18.2
Cn1c(=O)c2c(nc(SCc3nc(N)nc(N4CCCCC4)n3)n2C)n(C)c1=O | 8.75
Fc1ccccc1N1CCN(CC2CC3C=CC2C3)CC1 (stereo not shown) | 12.5
Cc1cccc(Nc2nnc(SCC(=O)NCc3cccs3)s2)c1 | 23
CNC(=O)CN(c1ccc(C(C)C)cc1)S(C)(=O)=O | 9.52
CNS(=O)(=O)c1cccc(C(=O)OCC(=O)Nc2sc3c(c2C#N)CCCCC3)c1 | 8.36
Cc1ccc(-n2ncc3c(NNC(=O)c4ccco4)ncnc32)cc1C | 5.2
